# From PubChem BioAssay AID686978 (National Center for Advancing Translational Sciences (NCATS), 2013)
# The campaign covered roughly 420,000 compounds. About 64,000 (15%) were called active. The shares of active, inactive and inconclusive entries below differ from those in the screen. The call rests on the fitted dose curve; in most records, active means well fitted inhibition curve with a large enough effect; inconclusive means small, poorly fitted or top-dose-only effect; inactive means flat fitted curve, though single readings scatter. No potency is given beside an inconclusive call; the fits are too rough.
# Test: qHTS for Inhibitors of human tyrosyl-DNA phosphodiesterase 1 (TDP1): qHTS in cells in absence of CPT; further: nearly all actives have a fitted effect of over 55% in size
# Settings: DT40 Tdp1-/- hTDP1 cells, no CPT, ATP luminescence, 48 h
# How it was run: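 Seeded 400 DT40-hTDP1 cells/well (vehicle DMSO, no 20 nM CPT); pinned compounds; ≥48 hr at 37 °C; CellTiter-Glo luminescence as viability measure.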
# [1] = activity change, negative = growth inhibition: at 46.2 µM (top of the series) unless noted
# On the % scale 0 is the no-effect control and ±100 the full control effect; potency means the concentration at half of the fitted maximal effect; tags describe the fitted curve by direction and shape.
smiles,measurement,setting,value
Fc1ccc(COc2cccc(-c3n[nH]c(=S)o3)c2)cc1,Potency,[1],inactive
CN1CCN(c2ncncc2-c2ccc(N(C)C)cc2)CC1,Potency,[1],inactive
CCCCC1=CC2=C(c3ccco3)C(=O)C(C)(OC(=O)c3ccc(OC)cc3)C(=O)C2=CN1C1CCCCC1 (centres undefined),Potency,[1],active: 4.61 µM
Cc1ccc(-c2csc(NC(=O)N3CCOCC3)n2)cc1,Potency,[1],"inconclusive [inhibitor, single point]"
CSCCOC(=O)COc1ccc(/C=N/NC(=O)c2nn(C)cc2Cl)cc1,"activity change, negative = growth inhibition",[1],inconclusive: -31.1% [inhibitor]
C/C(=N\NS(=O)(=O)c1ccc([N+](=O)[O-])cc1)c1cccs1,Potency,[1],"inconclusive [inhibitor, single point]"
CC(Sc1nnc(-c2ccccc2)c(-c2ccccc2)n1)C(=O)N1CCc2ccccc21 (centres undefined),Potency,[1],active: 16.4 µM
CCOC(=O)c1c(NC(=O)CSc2nc3ccccc3s2)sc(C)c1C,Potency,[1],"inconclusive [inhibitor, partial curve, poor fit]"
CC(=O)Nc1cccc(NC(=O)c2cc3ccccc3o2)c1,Potency,[1],active: 20.6 µM
Nc1nc(-c2ccccc2)cn1N,Potency,[1],"inconclusive [inhibitor, single point]"
COC(=O)c1ccc(COC(=O)c2[nH]c(C)c(C(C)=O)c2C)o1,Potency,[1],active: 2.91 µM
CCCCCNC(=O)C(c1cccc2ccccc12)n1c(=O)c(-c2cc3ccccc3[nH]2)nc2ccccc21 (centres undefined),Potency,[1],"inconclusive [inhibitor, single point]"
Cc1cc(C)c(C)c(S(=O)(=O)N2CCC(C(=O)N3CC(C)CC(C)C3)CC2)c1C (centres undefined),Potency,[1],active: 25.9 µM
C/C(=N\NC(=O)c1cc(C)nc2ccccc12)c1cccc(Cl)c1,Potency,[1],inactive
COc1ccccc1CNC(=O)C1CC(c2ccccc2F)=NO1 (centres undefined),Potency,[1],inactive
O=C(CSc1nnc(NCc2ccccc2)s1)NC1CCS(=O)(=O)C1 (centres undefined),Potency,[1],inactive
COCCCN1C(=O)C(=O)/C(=C(/O)c2ccc(S(=O)(=O)N3CCCCC3)cc2)C1c1cccc(OC)c1 (centres undefined),Potency,[1],"inconclusive [inhibitor, partial curve]"
COc1ccc(NS(=O)(=O)c2ccc3c(c2)NC(=O)C(C)S3)cc1 (centres undefined),Potency,[1],"inconclusive [inhibitor, full curve, poor fit]"
COc1ccc(NC(=O)c2cnc(SCC(=O)NCCc3ccccc3)n(C)c2=O)cc1,Potency,[1],inactive
CC[C@]12c3[nH]c4cc(CCC(=O)N(C)C)ccc4c3CCN1C(=O)[C@@H](CC(=O)NCCCN(C)C)C[C@@H]2C(=O)N1CCN(C(=O)c2ccco2)CC1,Potency,[1],inactive
COC(=O)c1cc(S(=O)(=O)Nc2nn(C)c3cccc(F)c23)oc1C,Potency,[1],inactive
Cc1ccc2c(CN3CCN(CCO)CC3)cc(=O)oc2c1,Potency,[1],inactive
Cc1ccc(NC2=C(N3CCOCC3)C(=O)c3ccccc3C2=O)cc1,Potency,[1],active: 25.9 µM
COc1cccc2c1Oc1ncccc1N(c1ccc(C(=O)NCc3ccccc3C)s1)C2,Potency,[1],"inconclusive [inhibitor, single point]"
O=P(c1ccccc1)(c1ccccc1)c1nc(-c2ccc(Cl)cc2)oc1N1CCOCC1,Potency,[1],inactive
O=C(N/N=C/c1ccc2c(c1)OCO2)c1cc2ccccc2o1,Potency,[1],inactive
Cc1ccc(NC(=O)c2c(C)oc3ncn(C)c(=O)c23)cc1F,Potency,[1],active: 18.4 µM
CCOc1ccccc1NC(=O)N1CCCc2ccccc21,Potency,[1],inactive
O=C(COc1ccc(Cl)cc1Cl)NC(=S)N1CCCc2ccccc21,Potency,[1],active: 20.6 µM
O=c1cc(-c2ccc(O)cc2)oc2c(O)c(O)c(O)c(O)c12,Potency,[1],"inconclusive [inhibitor, single point]"
O=[N+]([O-])c1ccc(S(=O)(=O)Nc2ccncc2)cc1,Potency,[1],inactive
FC(F)(F)c1cccc(Cc2noc(CN3CCSCC3)n2)c1,Potency,[1],"inconclusive [inhibitor, single point]"
CCCCC(=O)Nc1ccc2nc(SCC(=O)N3CCOCC3)sc2c1,Potency,[1],"inconclusive [inhibitor, single point]"
CCOC(=O)c1ccc(NC(=O)c2c(NC(=O)CCC(=O)O)sc3c2CCCCC3)cc1,Potency,[1],active: 29.1 µM
O=C(Nc1ccccn1)c1cc(-c2ccc(Cl)s2)nc2ccccc12,Potency,[1],"inconclusive [inhibitor, single point]"
COc1cccc(NC(=O)C2CCN(S(=O)(=O)c3ccc4c(c3)CC(C)N4C(C)=O)CC2)c1 (centres undefined),Potency,[1],"inconclusive [inhibitor, partial curve]"
O=C(OCc1cccc(F)c1)c1ccc2c(c1)-c1ccccc1C2=O,Potency,[1],"inconclusive [inhibitor, single point]"
CC(=O)c1c(NC(=O)C(C)C)nc(C)nc1-c1ccccc1,Potency,[1],inactive
Cc1ccc(C)c(-c2csc(N)c2C(=O)OC(C)C)c1,Potency,[1],"inconclusive [inhibitor, single point]"
O=C(NNC(=O)c1ccc2ccccc2c1)c1ccc(Cl)cc1,"activity change, negative = growth inhibition",[1],inconclusive: -25.8% [inhibitor]
C/C(NC(=O)c1cccs1)=C1\C(=O)C[C@@H]2[C@H]1C2(C)C,Potency,[1],"inconclusive [inhibitor, single point]"
COc1ccc(CC(=O)N2CCN(c3ccccc3OC)CC2)cc1OC,Potency,[1],inactive
COc1ccc(C(=O)N2CCN(S(=O)(=O)c3ccc4c(c3)OCCO4)CC2)cc1OC,Potency,[1],inactive
CCc1nc2ccc(C(=O)N(C)Cc3ccccc3)cn2c1N(C)CCCc1ccccc1,Potency,[1],active: 13 µM
COCCNc1nc(C)cc(-c2cc(-c3ccc(Cl)cc3)on2)n1,Potency,[1],"inconclusive [inhibitor, single point]"
O=C(NCCCN1CCOCC1)c1ccc(Sc2cccc(Cl)c2)c([N+](=O)[O-])c1,Potency,[1],active: 20.6 µM
CCNCCC(CCC(C)C)c1ccc2c(c1)OCO2 (centres undefined),Potency,[1],"inconclusive [inhibitor, single point]"
CC1=C(c2ccc(C(C)C)cc2)S(=O)(=O)N=C1N1CCN(c2ccc(F)cc2)CC1,Potency,[1],active: 10.3 µM
COc1ccccc1Nc1nc(N)nc(CSC(=S)N2CC(C)CC(C)C2)n1 (centres undefined),Potency,[1],"inconclusive [inhibitor, single point]"
O=C(CCCc1ccccc1)NC1CC(=O)N(c2ccc(Cl)cc2)C1 (centres undefined),Potency,[1],"inconclusive [inhibitor, single point]"
COc1ccc(N2CCN(c3ccc([N+](=O)[O-])cc3Cl)CC2)cc1,Potency,[1],"inconclusive [inhibitor, full curve, poor fit]"
C=C[C@@]1(C)CC(=O)[C@@]2(O)[C@@]3(C)[C@@H](O)CCC(C)(C)[C@@H]3[C@H](OC(=O)CCN(C)C)[C@H](OC(C)=O)[C@@]2(C)O1,Potency,[1],"inconclusive [inhibitor, partial curve, poor fit]"
CCOC(=O)c1cc(-c2ccccc2)sc1NC(=O)c1ccc(OC)cc1,Potency,[1],"inconclusive [inhibitor, full curve]"
Cc1cccc(-c2nc3c4ccccc4nc(N4CCN(c5ccc(F)cc5)CC4)n3n2)c1,Potency,[1],inactive
CC1CCC(NCc2ccco2)CC1 (centres undefined),Potency,[1],inactive
O=C(O)c1ccc(/C=C(\c2nc3ccccc3[nH]2)c2nc3ccccc3s2)cc1,Potency,[1],inactive
CCOc1nc(S(=O)(=O)c2ccc(C)cc2)c(Cl)s1,Potency,[1],"inconclusive [inhibitor, single point]"
Cc1cccc(N2CCN(Cc3cn(C)nc3-c3ccccc3F)CC2)n1,Potency,[1],active: 2.59 µM
C/C(=N\NC(=O)c1c([N+](=O)[O-])c(C)nn1C)c1ccc(NC(=O)C2CCCC2)cc1,Potency,[1],active: 0.184 µM
COc1ccc(NC(=S)N2CCC(C(=O)c3ccc(C)cc3)CC2)cc1,Potency,[1],active: 8.2 µM
O=C(NCC(=O)N1CCN(S(=O)(=O)c2ccccc2)CC1)c1ccc2ccccc2c1,"activity change, negative = growth inhibition",[1],inconclusive: -32.9% [inhibitor]
COc1ccccc1C(=O)n1nc(-c2cccnc2)nc1NCc1ccccc1,"activity change, negative = growth inhibition",[1],inconclusive: -32.2% [inhibitor]
same,"activity change, negative = growth inhibition",at 46.2 µM (top of the series),inactive: -13.6%
Cc1ccc(OCC(=O)Nc2nnc(SCc3cc(=O)c4ccccc4[nH]3)s2)cc1C,Potency,[1],"inconclusive [inhibitor, partial curve]"
COc1ccc(C)cc1N(CC(=O)Nc1ccc2c(c1)OCCO2)S(C)(=O)=O,Potency,[1],"inconclusive [inhibitor, single point]"
C[C@@H](C(=O)NC1CCCCC1)N1C(=O)N2CCc3c([nH]c4ccccc34)[C@@]2(C)C1=O,Potency,[1],"inconclusive [inhibitor, single point]"
Cc1ccc([N+](=O)[O-])cc1NC(=O)CN(C)CCOc1ccccc1,Potency,[1],"inconclusive [inhibitor, single point]"
O=C(Cn1cnc2ccccc2c1=O)NNC(=O)c1ccccc1F,Potency,[1],inactive
O=C(c1ccc([N+](=O)[O-])cc1)N1CCSC1c1ccc(Cl)cc1 (centres undefined),Potency,[1],inactive
CCOc1ccc(NC(=O)CN2CCN(c3ccccc3C)CC2)cc1S(=O)(=O)N1CCCC1,Potency,[1],"inconclusive [inhibitor, single point]"
Nc1c(C(=O)Nc2ccc(F)cc2)nnn1-c1cccc(C(F)(F)F)c1,Potency,[1],"inconclusive [inhibitor, partial curve]"
CCCCCCCn1c2c(c(=N)c3c1CCC3)CCCC2,Potency,[1],active: 0.326 µM
COc1ncc2nc(-c3cc(F)cc(F)c3)c(=O)n(Cc3cccs3)c2n1,Potency,[1],inactive
CCn1nc(C)c(CN2CCCC(CNS(=O)(=O)c3ccc(OC)cc3)C2)c1C (centres undefined),Potency,[1],"inconclusive [inhibitor, partial curve]"
